Molecular target: T1, human wildtype ubiquitin (human, UniProt P0CG48 partial chain)
T1 construct: Scaffold control; also called Ubiquitin wildtype
Assay: concentration-dependent ELISA, detection with anti-ubiquitin antiserum

B1: human NGF (ligand)
chain: not shown
notes: also called a growth factor from the family of cysteine knot proteins
B1: no binding.

Source: patent publication US20070248536A1 (SCIL PROTEINS, published 2007)
